Reference: PubChem BioAssay AID1240 (Sanford-Burnham Center for Chemical Genomics, 2008)
In all, about 50,000 compounds went through this assay and about 800 (1.6%) showed an effect of 50% or more. The list shows a part of the results.

Target: Bcl-2-like protein 10 (Homo sapiens) (UniProt Q9HD36)
Test: Phenotype converters, Bcl-B/TR3 peptide binding displacement, primary biochemical FP (AID 1240);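 note: 0% = Bcl-B with tracer peptide and DMSO and 100% = tracer peptide lacking Bcl-B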
Conditions: GST-Bcl-B / FITC-TR3 peptide fluorescence polarization; stronger effect = higher value; compound at 3.75 mg/L

Sequence of UniProt Q9HD36 (Q9HD36 whole entry, looked up): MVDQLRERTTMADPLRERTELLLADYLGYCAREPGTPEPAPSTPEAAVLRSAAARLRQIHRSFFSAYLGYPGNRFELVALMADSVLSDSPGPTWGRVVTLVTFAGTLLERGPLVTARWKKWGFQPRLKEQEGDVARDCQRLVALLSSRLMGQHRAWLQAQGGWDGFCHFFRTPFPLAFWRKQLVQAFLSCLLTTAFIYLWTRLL

Structure (SMILES) | displacement [%]
CCOc1ccc(/C=C2\C(=O)NC(C)=C2C(=O)OC)cc1 | 10.8
CCNC(=O)NC(C(=O)OC)C12CC3CC(CC(C3)C1)C2 (stereo unspecified) | -10.1
CCCCOc1ccc(C(=O)NCCC2(O)CCOC(C)(C)C2)cc1 (stereo unspecified) | 6.6
Cc1ccc(C(=O)N2CCN(c3ccc([N+](=O)[O-])cc3)CC2)cc1C | 6
CCN=C(Nc1ccc2c(c1)OCO2)SC1CC(=O)N(c2ccc(Br)cc2)C1=O (stereo unspecified) | -0.2
O=C(COc1cccc2ccccc12)Nc1ccc2c(c1)OCCO2 | 8.3
COc1ccc(OC)c(N(CC(=O)Nc2cccc(Br)c2)S(C)(=O)=O)c1 | 12.2
Cc1cc(OCC(=O)N2CCCC2)ccc1Br | -9.6
C/C(CC(=O)Nc1ccc(Nc2ccccc2)cc1)=N\NC(=O)c1ccoc1C | 0.4
CC12CN3CC(C)(CN(C1)C3(C)CSc1c[nH]c3ccccc13)C2=O (stereo unspecified) | -14
O=C(Nc1ccc(Cl)cc1)C1CC2c3ccccc3C1c1ccccc12 (stereo unspecified) | -8.9
COc1cc(NC(=O)c2cccc3c(Br)cccc23)ccc1NC(=O)c1ccco1 | 1.8
COc1cc(OC)c(OC)cc1CN1CCN(C(=O)c2ccc([N+](=O)[O-])cc2)CC1 | -0.3
O=C(O)C1CCCCC1C(=O)Nc1ccccc1Nc1ccccc1 (stereo unspecified) | -5.8
Cc1ccc2nc(SCc3ccc(Cl)cc3)nc(C)c2c1 | 13.1
N/C(=N\OC(=O)c1ccccc1I)c1ccccn1 | 0.5
COc1ccccc1CNC(=O)c1ccc(OC)c([N+](=O)[O-])c1 | 13
O=C1C(=O)N(CCc2ccccc2)c2ccccc21 | 1
O=C1C=CC(=NOC(=O)c2ccccc2)C=C1 | 27.5
CCOc1ccc(C(=O)N2CCC(Cc3ccccc3)CC2)cc1OCC | 10
O=C(COc1ccc2ccccc2c1)NNC(=O)c1ccc(Cl)cc1 | -4.6
Cc1ccc(OCC(=O)Nc2cc(Cl)cc(Cl)c2)cc1 | 12.4
COc1ccc(C(=O)N2CCN(C3CC4CCC3C4)CC2)cc1 (stereo unspecified) | -12.4
Cc1ccc(C(=O)Nc2ncn[nH]2)cc1 | 1.4

Structure (SMILES) | displacement [%]
O=C(O)C(c1ccccc1)C(C(=O)O)c1ccccc1 (stereo unspecified) | 14.5
N/C(=N\OC(=O)c1ccccc1Br)c1ccccn1 | 6.5
O=C1CSC(=O)N1c1cccc(O)c1 | 9.3
CCOC(=O)CSc1nnc(-c2ccc(Br)cc2)o1 | 7
O=C(Nc1ccc(Br)cc1)Nc1cccc(Cl)c1 | 3.8
C=CCNC(=O)NC(=O)C12CC3CC(CC(C3)C1)C2 | 2.8
CCOC(=O)/C=C(\C)Nc1cc(-c2ccc(Cl)cc2)[nH]n1 | -2.6
CC(=O)c1ccc(NC(=S)NC(NC(=O)c2ccc(C)cc2)C(Cl)(Cl)Cl)cc1 (stereo unspecified) | 8.7
CCOc1ccccc1NC(=O)CSCc1ccc(Cl)cc1Cl | 6.2
CCOC(=O)c1c(NC(=O)c2ccc(OC(C)C)c(OCC)c2)sc2ccccc12 | 80
O=C(c1cccc(Br)c1)N1CCN(c2ccc(Cl)cc2[N+](=O)[O-])CC1 | -9.9
COC(=O)C1=C(C)N=c2s/c(=C/c3cccc([N+](=O)[O-])c3)c(=O)n2C1c1ccc(OC(C)=O)cc1 (stereo unspecified) | 8.7
COc1ccc(C/C(N)=N/OC(=O)Cc2ccc(OC)c(OC)c2)cc1 | 5.2
O=C1/C(=C\C=C\c2ccccc2)SC(=S)N1Cc1ccc(Cl)c(Cl)c1 | 2.5
Cc1cccc(C(C)C)c1NC(=O)CCCOc1ccccc1 | -2
COc1ccc(CCNC(=O)COc2ccc(Br)c(C)c2)cc1 | 4.8
Cc1ccc(N(Cc2c(O)ccc3ccccc23)C(=O)c2cccc([N+](=O)[O-])c2)cc1 | 2.7
CC(C)(C)c1cc(/C=N/Nc2ccc(C(F)(F)F)cn2)cc(C(C)(C)C)c1O | 14.1
O=C(NC(NC(=S)Nc1ccccc1Br)C(Cl)(Cl)Cl)c1ccccc1 (stereo unspecified) | 2.8
COc1ccc(COC(=O)C2=C(C)NC(=O)NC2c2ccc3c(c2)OCO3)cc1 (stereo unspecified) | 4.4
CC(=O)C1=C(Nc2ccccc2)CC(C)(O)C(C(C)=O)C1c1cccnc1 (stereo unspecified) | 5.6
COc1ccc(C(=O)Nc2nc(-c3ccc(F)cc3)cs2)cc1 | 12
O=C1c2cccc3cccc(c23)C(=O)N1Cc1ccc2c(c1)OCO2 | 19
COc1ccc(C2CC(=O)C3=C(C2)Nc2ccccc2NC3c2ccc(O)cc2)cc1 (stereo unspecified) | -1.5

Structure (SMILES) | displacement [%]
C=CCN1C(=O)/C(=C/c2ccc(N(C)C)cc2)S/C1=N\c1nnc(CC)s1 | -16.4
C(=N\n1cnnc1SCc1ccccc1)/c1ccco1 | -1.5
COc1ccccc1CNC(=O)N1CCOCC1 | 11.9
Cc1ccccc1OCC(=O)Nc1ccc2c(c1)Cc1ccccc1-2 | 5.9
O=C(CN(c1cccc([N+](=O)[O-])c1)S(=O)(=O)c1ccccc1)Nc1ccc2ccccc2c1 | -7.4
COC1C(C)=C(c2ccccc2F)C(=O)N1Cc1ccccc1 (stereo unspecified) | 14.3
O=C1NN(c2ccccc2)C(=O)/C1=C/c1ccc(-c2ccccc2Cl)o1 | -13.5
COc1cc2ccccc2cc1C(=O)Nc1ccc(OC(F)(F)F)cc1 | -1.6
CC1CCN(c2cc(N3CCN(C(=O)c4c(F)cccc4F)CC3)c([N+](=O)[O-])cc2F)CC1 | -15.3
O=C1C2C3C=CC(C3)C2C(=O)N1/N=C/c1ccccc1I (stereo unspecified) | 17.4
O=C(Nc1ccccc1C(=O)NC(Cc1c[nH]c2ccccc12)C(=O)O)c1ccccc1 (stereo unspecified) | -7.8
O=C(NCC1CCCO1)C(=O)Nc1ccc(Oc2ccccc2)cc1 (stereo unspecified) | -1
O=C(CSc1n[nH]c(-c2ccccc2)n1)c1ccccc1 | 13
COc1ccc(C)cc1NC(=O)c1cccc([N+](=O)[O-])c1C | -8.3
CC1=NNC(=O)/C1=C\c1cn(-c2ccccc2)nc1-c1ccc(C)o1 | -22.6
CC1(C)CC(=O)C=C(Nc2cc(-c3ccccc3)[nH]n2)C1 | -6
O=C(Nc1ccc(Cl)c(-c2nc3ccccc3s2)c1)c1cccs1 | 3.6
CCC(C(=O)N1CCOCC1)c1ccccc1 (stereo unspecified) | 12.2
O=C(CNC(=O)c1ccc(Cl)cc1)c1ccccc1 | -7.4
CCOC(=O)c1ccc(NC(=O)CN(c2ccccc2OCC)S(=O)(=O)c2ccccc2)cc1 | -3.1
Cc1cccc(-c2nc3cc(NC(=S)NC(=O)c4ccco4)ccc3o2)c1 | 11.2
CS(=O)(=O)NNC(=O)[C@H]1C[C@H]1c1ccccc1 | -10.7
Nc1ncc(Cc2ccccc2[N+](=O)[O-])s1 | 17.6
